# The supplement of paper PMC11417369
# ± gives the standard deviation of the averaged measurements. This is one part of the list.
# Tested on: PfAP2-EXP AP2 domain (GST-tagged)
# Experiment: gcPBM binding intensity (ln(normalized median fluorescence intensity)); higher = stronger DNA binding
# In short: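 An Agilent 4 × 180k array of primer-extended double-stranded 36-bp intergenic genomic probes, with negative controls, was incubated for 1 h with GST-tagged P. falciparum DNA-binding domains expressed in E. coli. Alexa488 anti-GST antibody detected bound protein, scanned at 488 nm. Binding intensity is the highest Masliner-normalised natural-log median intensity across replicate spots of either probe orientation.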
row,Sequence,gcPBM binding intensity (ln)
1,GTTAATTCATTAAGGACACACAAAAAAAAAAAAAAA [CACACA_site998],8.18 ± 0.47
2,ATGAATATAAAATATACACACTTATATATTGAATGA [CACACA_site4274],8.16 ± 0.32
3,GATTAAATTTGACACTGTACAAAAAATAAAATGAGG [XGTACX_site504],8.78 ± 0.4
4,CTTATATGAAGCCTCTTTATTCATAAATAAGAATAA [TGCATGCA_negctrl_site120],8.12 ± 0.45
5,AGTATACATATATATACACACACATATATATATATA [CACACA_site7883],9.98 ± 0.62
6,CCAACATAGAGGGGCACACACATATATACATAAAAA [CACACA_site1847],8.54 ± 0.2
7,TTAACAAAATTTCCGTGTACGTAAATAAGAACATAG [XGTACX_site7200],8.82 ± 0.18
8,AAACAACATGGACACGCACACACAAAAAAAGCATGC [CACACA_site73],9.16 ± 0.13
9,TTACATACATACAAGTGTACGCATATATTAATATTA [XGTACX_site4006],8.86 ± 0.37
10,TTTAACATTTCAGATGTGCACATTTTCCGAACCAGT,8.885 ± 0.021
11,ATATGTACAAGTTATACACACATGTACAGTTATATA [CACACA_site6706],8.69 ± 0.14
12,AGAACGACTAAGCAGTGTACATTTTGTATATACAAT [XGTACX_site2831],8.62 ± 0.31
13,AAAGAACTTAATGCTGCACACAAAAAAAAGGAAAAA [CACACA_site8375],8.61 ± 0.36
14,TAAATGTGTATATATTGTACAAATATTAATACATAC [XGTACX_site8102],8.58 ± 0.21
15,AAATTGTTAAAAAGAAGTACATTCTTTTATTTCTTA [XGTACX_site540],8.17 ± 0.23
16,ATAATGAAGACTTTTTTACACACTTCATATATTATA [CACACA_site8630],8.86 ± 0.53
17,TGATATTTTTCCATAGTGCAAAATATAGTAATGTAT,8.59 ± 0.12
18,ATATAACATAATGGATGTACATGTATAAATATAAAA [XGTACX_site8228],9.02 ± 0.45
19,ATATATATGGTCATTTGTACATATCGTGAGAGCTGC [XGTACX_site4117],8.79 ± 0.43
20,AGAATCACCAAATATGTACACACCTTAACATGTTTA [CACACA_site2068],9.01 ± 0.46
21,TATATTATAAATTAATGTACGTAATTTTTTTTTTTT [XGTACX_site2500],8.27 ± 0.59
22,TTTTTTTTTTACTTCACACATATACATTTATATTTA [CACACA_site4385],8.7 ± 0.44
23,TAAACATACAGATACACACACACACCCACAGAGACA [CACACA_site4429],8.74 ± 0.53

row,Sequence,gcPBM binding intensity (ln)
1,CTTGGGCGTCATAATGAACACACAATTATATTATGA [CACACA_site9297],8.27 ± 0.45
2,TTATTACCATATTTTGTACACACATCTTTATCTCAA [CACACA_site9054],8.92 ± 0.4
3,ATTATATAATCTATATGTACATATATATATATATAT [XGTACX_site4970],10.1 ± 0.3
4,TATATATAAGCGCATGCACACGCAAAGGTATATAAA [CACACA_site8107],9.4 ± 0.11
5,AAAATAATAAATAACGCATGCGTGTGCATTTTATTC [TGCATGCA_site898],9.305 ± 0.064
6,ATATATACAAATCCTTTTTTCCAAGATGGAAAAAGA [CACACA_negctrl_site382],8.18 ± 0.51
7,ATAATAATATTATTTTGTACATATGTGCTTATTTAT [XGTACX_site5540],8.99 ± 0.45
8,AGTAATAAGTAATTTACACACATATTATAGCATCAC [CACACA_site6971],8.56 ± 0.5
9,GTATAATTTAAAAAGTGTACATAAAGTTTTTATTAA [XGTACX_site1090],8.38 ± 0.2
10,TTTTGTCAACATTTTTATATTAGGTCTTGAACGATT [GTGCAC_negctrl_site72],8.35 ± 0.45
11,AAAAAATTCAAAATCACACATAAAAAAGGACACATA [CACACA_site5972],8.88 ± 0.38
12,CCTACAATTCGTAATACACACACATATATATATATA [CACACA_site9251],10.2 ± 0.16
13,ACATTATATAAAATATGTACACATAAATAAATAAAT [XGTACX_site5031],8.73 ± 0.41
14,TAATTTTGTAAAAATTGTACATATTTATCTTTTTAT [XGTACX_site4305],8.22 ± 0.37
15,TCATATTATAAAAAATGTACAAGGAAAAAATATATA [XGTACX_site337],9.06 ± 0.58
16,AAAAAAAAAAAAAACACACACATATAATATATTTAA [CACACA_site1337],8.35 ± 0.38
17,TATATAATAAGATATGCATGCACATGTAAAATGAAT [TGCATGCA_site499],10.1 ± 0.13
18,TTAAAATAGATAAATAGTACTCTTTCCATTATGTAA [XGTACX_site6299],8.16 ± 0.29
19,ATAATGTTTTATAATACACACATTAGATATATAAAT [CACACA_site7834],8.36 ± 0.37
20,TCATATAACACTTGATGTACAAGAATCCAAGTTGCA [XGTACX_site8758],8.48 ± 0.33
21,ATATGTATAATATATATATATATATATATATATATA [CACACA_negctrl_site623],9.94 ± 0.54
22,TAAATACTTTTATGTACACACATATAGATATATATT [CACACA_site5416],8.54 ± 0.26
